# According to publication PMC4336329 (PLoS ONE, 2015):
# Among all 310,000 compounds or so, about 14,000 (4.5%) showed an effect of 50% or more. Effects have a minus sign here. This is one part of the list.
# Molecular target: human ether-à-go-go-related gene (hERG) potassium channel (human, UniProt Q12809)
# Assay: primary screen, population patch clamp on CHO cells stably expressing hERG
# 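Note: peak tail current of the secondary pulse compared with the same well before compound.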
# Sequence of human ether-à-go-go-related gene (hERG) potassium channel (Q12809 whole entry, looked up): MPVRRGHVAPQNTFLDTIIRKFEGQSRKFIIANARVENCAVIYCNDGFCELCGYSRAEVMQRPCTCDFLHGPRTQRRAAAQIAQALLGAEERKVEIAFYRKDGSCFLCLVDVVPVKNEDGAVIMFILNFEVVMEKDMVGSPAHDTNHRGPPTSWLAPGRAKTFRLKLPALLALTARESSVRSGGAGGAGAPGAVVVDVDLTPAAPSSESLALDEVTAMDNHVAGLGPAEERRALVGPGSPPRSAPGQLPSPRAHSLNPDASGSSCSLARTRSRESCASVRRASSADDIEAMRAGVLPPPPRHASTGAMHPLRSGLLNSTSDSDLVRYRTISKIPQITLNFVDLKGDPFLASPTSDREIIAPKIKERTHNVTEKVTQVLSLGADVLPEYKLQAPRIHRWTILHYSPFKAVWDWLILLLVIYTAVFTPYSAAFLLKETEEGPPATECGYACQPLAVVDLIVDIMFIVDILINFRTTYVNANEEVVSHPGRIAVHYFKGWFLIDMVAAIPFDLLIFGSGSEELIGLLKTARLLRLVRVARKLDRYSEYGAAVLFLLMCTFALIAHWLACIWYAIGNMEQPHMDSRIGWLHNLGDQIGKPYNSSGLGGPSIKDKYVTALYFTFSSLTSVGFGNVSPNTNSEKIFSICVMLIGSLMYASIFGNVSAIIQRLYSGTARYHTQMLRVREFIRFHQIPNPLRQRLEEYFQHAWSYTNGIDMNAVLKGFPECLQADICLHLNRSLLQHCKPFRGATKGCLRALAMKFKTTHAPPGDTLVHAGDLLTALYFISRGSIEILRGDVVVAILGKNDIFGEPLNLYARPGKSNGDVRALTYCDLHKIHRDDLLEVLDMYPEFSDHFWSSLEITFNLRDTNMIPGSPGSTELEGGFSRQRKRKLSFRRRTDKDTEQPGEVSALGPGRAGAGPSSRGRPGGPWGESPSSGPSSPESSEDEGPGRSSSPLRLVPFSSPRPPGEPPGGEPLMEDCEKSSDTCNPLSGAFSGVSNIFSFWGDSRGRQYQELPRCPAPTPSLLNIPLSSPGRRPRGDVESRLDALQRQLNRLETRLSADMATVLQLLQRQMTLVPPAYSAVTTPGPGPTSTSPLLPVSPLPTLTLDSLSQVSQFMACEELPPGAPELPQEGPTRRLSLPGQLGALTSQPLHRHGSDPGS
row,SMILES,"hERG current change (%, negative = inhibition) at 10uM [%]"
1,COc1ccc([N+](=O)[O-])cc1-n1cnnn1,19.2
2,CCNC(=O)[C@H]1O[C@@H](n2cnc3c(N)ncnc32)[C@H](O)[C@@H]1O,18.5
3,Brc1c(OCCOCCn2cncn2)ccc2ccccc12,-12.6
4,c1ccc(-n2nnnc2SCc2cccc3nsnc23)cc1,1.56
5,COc1ccc(/C=C/C(=O)N2CCC(c3ccccc3)C2)cc1 (centres unmarked),-47.4
6,CCn1ccnc1CN(C)Cc1cn(-c2cccc(C)c2)nc1-c1cccc(F)c1,-18.3
7,O=C(COc1ccc2ccccc2c1)N1CCN(C(=O)c2cccnc2)CC1,-25
8,O=C(COC(=O)c1cc(Cl)ccc1Cl)NC1CCCC1,-0.39
9,COC(=O)C1SCC2C(=O)N(Cc3ccccc3)CC(=O)N21 (centres unmarked),26.1
10,N#C/C(=C\c1ccc[nH]1)C(=O)N1CCCCC1,13
11,COc1ccc(/C=N/NC(=O)CN(c2ccc(OC)cc2)S(=O)(=O)c2ccccc2)cc1,-7.15
12,CC(O)CNc1nc2ccccc2n1-c1ncnc2sc3c(c12)CCC3 (centres unmarked),-55.5
13,O=C1NC(=NCc2ccccc2)S/C1=C/c1ccc(O)cc1,-11.4
14,CC1CC(C)CN(S(=O)(=O)c2ccc(C(=O)Nc3sccc3C(N)=O)cc2)C1 (centres unmarked),14.8
15,Cc1ccc(CCNC(=O)CN2C(=O)COc3ccccc32)cc1,-11.4
16,COc1ccc(CCNC(=O)CN2CCC(C)CC2)cc1OC.O=C(O)C(=O)O,10.7
17,Cc1ccccc1OCC(=O)Nc1sc2c(c1C#N)CC(C)(C)NC2(C)C,10.1
18,CCOC(=O)C1CCN(C(=O)c2sc3nc(-c4ccccc4)cn3c2C)CC1,-41
19,Oc1ccc(/C=N/N2CCN(C3c4ccccc4-c4ccccc43)CC2)cc1,9.56

row,SMILES,"hERG current change (%, negative = inhibition) at 10uM [%]"
1,Cc1nc2ccccc2cc1C(=O)NCc1ccc(F)cc1,-30.6
2,O=C(Cn1c(NCCO)nc2ccccc21)N1CCN(Cc2ccccc2)CC1,-9.47
3,O=C(Nc1ccc2c(c1)CCC2)c1cccc(S(=O)(=O)N2CCN(c3ccc(F)cc3)CC2)c1,-3.29
4,Cl.O=C(Nc1cccc(Cl)c1)NC1CCN(C2CCCCC2)C1 (centres unmarked),-56.6
5,Cc1ccc(-c2nnc(SCC(=O)NCC3CCCO3)n2C)cc1 (centres unmarked),7.61
6,CN(Cc1ccccc1)C(=O)COC(=O)c1ccc(Cl)c(N)c1,0.779
7,CCC(CC)C(=O)Nc1c2c(nn1-c1ccc(OC)cc1)CS(=O)(=O)C2,-6.67
8,Cc1cc(C(=O)OCC(=O)Nc2cc(S(=O)(=O)N(C)C)ccc2C)c2ccccc2n1,-3.98
9,CCOC(=O)C1CCCN(C(=O)COc2ccccc2O)C1 (centres unmarked),-1.94
10,CN(C)S(=O)(=O)c1cccc(C(=O)NCC2CCCO2)c1 (centres unmarked),-2.18
11,COc1ccc(N(CC(=O)N2CCOCC2)S(C)(=O)=O)cc1OC,13.8
12,COc1ccccc1N1C(=O)c2cccc3c(C(=O)O)ccc(c23)C1=O,-3.86
13,Cc1cccc(NC(=O)CCC2CCN(Cc3nccs3)CC2)c1,-41.5
14,CSc1ccc(S(=O)(=O)Nc2ccc(F)cc2)cc1,1.51
15,COc1ccc(CNC(=O)c2ccc(NS(=O)(=O)c3ccc4[nH]c(=O)[nH]c4c3)cc2)cc1OC,13.3
16,Cc1c(C(=O)Nc2cc(S(=O)(=O)N3CCOCC3)ccc2N2CCN(C)CC2)oc2ccccc12,-10.8
17,COc1cccc2sc(Nc3nnc(-c4ccc(F)cc4)o3)nc12,-3.13
18,O=C1NC(=O)C(=Cc2cc([N+](=O)[O-])ccc2N2CCCCC2)C(=O)N1,7.84
19,O=C(c1cc(=O)[nH]c2ccccc12)N1CCN(c2ccccc2)CC1,2.12

row,SMILES,"hERG current change (%, negative = inhibition) at 10uM [%]"
1,Cc1cc(Nc2nc3ccccc3nc2Cl)n(-c2ccccc2C)n1,-24.8
2,Cl.NS(=O)(=O)c1ccc(CCNCc2cccnc2)cc1,18.4
3,CCc1nc(N[C@H](C(=O)O)C(C)C)c2oc3ccccc3c2n1,16.9
4,Cn1c(SCC(=O)Nc2ccccc2Cl)nnc1C1CC1,3.21
5,Cc1cc(C)c(C)c(S(=O)(=O)N2CCN(C(=O)c3ccncc3)CC2)c1C,-26.9
6,CCCC(=O)Nc1nc(-c2ccc(Cl)s2)cs1,8.94
7,O=C(/C=C/c1ccc([N+](=O)[O-])cc1)N(c1ccccn1)C1CCCCC1,-29
8,COc1ccc(COC(=O)C2CCN(S(=O)(=O)c3ccc(OC)c(OC)c3)CC2)cc1,-14.3
9,CC(=O)N/N=C/c1cc2c(cc1[N+](=O)[O-])OCO2,14.2
10,CCOC(=O)CCc1c(C)nc2c(c(C)nn2C(C)(C)C)c1C,-2.38
11,CCn1ncc([N+](=O)[O-])c1C(=O)NC1CCCCC1,16.2
12,CC(C)c1ccc(NC(=O)c2csnn2)cc1,3.7
13,CN(C)C(CNc1ncccn1)c1ccccc1 (centres unmarked),16.5
14,CN(Cc1ccco1)S(=O)(=O)c1csc(C(N)=O)c1,6.37
15,O=C1c2ccccc2C(=O)N1CCCCN(C(=O)c1cc2ccccc2oc1=O)c1ccc(F)cc1F,1.03
16,CCOC(=O)N1CCC(NC(=O)C(Cc2ccccc2)NC(=O)c2ccco2)CC1 (centres unmarked),-0.741
17,Cc1[nH]c(=O)[nH]c(=O)c1S(=O)(=O)Nc1ccc(S(N)(=O)=O)cc1,21.2
18,COC(=O)c1ccc(Oc2nc3c(c(=O)n(C)c(=O)n3C)n2CCC(C)C)cc1,3.24
